# Data published in PubChem BioAssay AID887 (National Center for Advancing Translational Sciences (NCATS), 2007).
# Where “and” joins values, the source holds several entries; their conditions need not be identical. Equal entries are not always repeated. The whole screen tested about 74,000 compounds, of which about 1,100 (1.5%) were called active. Inconclusive results, whose numbers are uncertain, are shown with a selection of clear calls. Calls follow the shape of the dose curve; as a rule, active = well fitted inhibition curve with a large enough effect; inconclusive = small, poorly fitted or top-dose-only effect; inactive = no such curve, though single readings can be large or run the other way. Potencies beside an inconclusive call are fits to weak or partial responses and may not hold up.
# Biological target: Polyunsaturated fatty acid lipoxygenase ALOX15 (Homo sapiens) (UniProt P16050)
# UniProt P16050, sequence (P16050 whole entry, looked up): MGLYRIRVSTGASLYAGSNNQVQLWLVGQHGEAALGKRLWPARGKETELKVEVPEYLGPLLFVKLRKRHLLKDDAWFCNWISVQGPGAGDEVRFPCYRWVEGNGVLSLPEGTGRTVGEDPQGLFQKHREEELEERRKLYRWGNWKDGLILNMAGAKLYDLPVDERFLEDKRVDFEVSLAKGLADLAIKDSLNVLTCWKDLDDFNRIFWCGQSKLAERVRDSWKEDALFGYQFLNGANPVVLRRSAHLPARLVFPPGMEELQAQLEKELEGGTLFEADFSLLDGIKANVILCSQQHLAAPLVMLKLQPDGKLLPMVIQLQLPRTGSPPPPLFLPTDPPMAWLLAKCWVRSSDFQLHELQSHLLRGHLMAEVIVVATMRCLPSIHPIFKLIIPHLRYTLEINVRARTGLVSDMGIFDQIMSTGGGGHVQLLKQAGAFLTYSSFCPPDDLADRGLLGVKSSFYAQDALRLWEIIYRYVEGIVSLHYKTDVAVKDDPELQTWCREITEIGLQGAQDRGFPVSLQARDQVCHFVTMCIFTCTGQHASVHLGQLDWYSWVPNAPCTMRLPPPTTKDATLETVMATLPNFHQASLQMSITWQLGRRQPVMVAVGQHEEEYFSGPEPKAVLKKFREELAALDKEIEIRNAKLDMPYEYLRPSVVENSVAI
# Experiment: qHTS Assay for Inhibitors of 15-hLO (15-human lipoxygenase); also: nearly all actives have a fitted effect of over 55% in size
# Settings: purified 15hLO-1, xylenol orange hydroperoxide absorbance; activity change, negative = inhibition: at 57.1 µM (top of the series) unless noted
# How it was run: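 Quantitative HTS in 25 mM Hepes pH 7.5 containing 0.01% Triton X-100: human 15hLO-1 at 40 nM, arachidonic acid at 50 uM, 6 min turnover. Product quantified via ferrous oxidation/xylenol orange, 573:405 nm absorbance ratio.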
# % is scaled to controls: 0 for no effect and ±100 for the full control effect; potency is read from the fitted curve at half-maximal effect; tags tell the direction and shape of the fitted curve.
SMILES,Potency,"activity change, negative = inhibition"
CCOC(=O)CCN1CCN(C(=O)c2ccc(-n3c(=O)c(=O)[nH]c4ccccc43)cc2)CC1,active: 12.6 µM,
COC(=O)C1Cc2c([nH]c3ccccc23)CN1 (stereo not given),"inconclusive: 3.16 µM [inhibitor, single point]",
COc1ccc(S(=O)(=O)Nc2ccc(C(F)(F)F)cc2)cc1OC,"inconclusive: 20 µM [inhibitor, partial curve]",
COc1ccc2[nH]cc(CCNc3cc(-c4cccnc4)ncn3)c2c1,active: 20 µM,
CN1CCN(c2ncc3nc(-c4cccc(C#N)c4)c(=O)n(Cc4ccc(F)cc4)c3n2)CC1,inactive,
O=c1[nH]c(Cn2nnc(-c3ccccc3)n2)nc2scc(-c3ccccc3)c12,"inconclusive: 2 µM [inhibitor, partial curve]",
Oc1ccc2c(c1)oc1cc(O)ccc12,active: 12.6 µM,
C[N+](C)(C)c1ncnc2c1ncn2[C@@H]1C[C@H](O)[C@@H](CO)O1,,inactive: -0.148% [at 11.4 µM]
Oc1ccc(N2CCN(C(c3cccnc3)c3nnnn3Cc3ccccc3)CC2)cc1 (stereo not given),active: 12.6 µM,
COC(=O)C1C(=O)NC(SC)=C(C#N)C1c1ccccc1F (stereo not given),"inconclusive: 15.8 µM [inhibitor, single point]",
COC(=O)C1=C(C)NC(C)=C(C(=O)OC(C)C)C1c1cccc2nonc12 (stereo not given),"inconclusive: 15.8 µM [inhibitor, single point]",
Cc1c(Cl)cccc1N1C(=O)CC(N(O)c2ccccc2)C1=O (stereo not given),"inconclusive: 7.94 µM [inhibitor, partial curve]",
Cc1cccc(Cn2c(N3CCN(c4ccccc4)CC3)nc3c2c(=O)n(C)c(=O)n3C)c1,"inconclusive: 2 µM [inhibitor, full curve]",
COc1cc(C2c3sc(=O)[nH]c3SC3C4CCC(C4)C23)ccc1O (stereo not given),"inconclusive: 25.1 µM [inhibitor, partial curve]",
COc1cc(OC)c(C(=O)CCCCN2CCC3(CC2)NC(=O)NC3=O)cc1NS(=O)(=O)c1ccc(C(F)(F)F)cc1,"inconclusive: 15.8 µM [inhibitor, single point]",
O=C(c1nc2nc(-c3ccc(Cl)cc3)cc(C(F)(F)F)n2n1)N1CCOCC1,inactive,
Cc1cc(C)c2c(=O)n(CC(=O)NCCCN3CCN(c4ccccc4F)CC3)sc2n1,"inconclusive: 0.0501 µM [inhibitor, full curve, poor fit]",
COc1ccc(C2C(C(C)=O)=C(C)N=c3s/c(=C/c4ccc5c(c4)OCO5)c(=O)n32)cc1 (stereo not given),inactive,
FC(F)(F)c1cccc(-c2noc(-c3cc(-c4ccccc4)c(C(F)(F)F)s3)n2)c1,"inconclusive: 39.8 µM [inhibitor, single point]",
CSc1ccccc1-n1nnnc1SCc1ccccc1,"inconclusive: 5.01 µM [inhibitor, full curve, poor fit]",
Cc1cccc2cc(C#N)c(N3CCN(C)CC3)nc12,inactive,
O=C(c1ccccc1OCc1ccccc1Br)N1CCN(c2ncccn2)CC1,"inconclusive: 15.8 µM [inhibitor, partial curve]",

SMILES,Potency,"activity change, negative = inhibition"
COc1ccc(-c2nc3cnc(N4CCN(C)CC4)nc3n(-c3ccc(OC)cc3)c2=O)cc1,"inconclusive: 39.8 µM [inhibitor, single point]",
Cc1cc(C)n(-c2ccc(C(=O)OCC(=O)Nc3ccc(S(=O)(=O)N4CCOCC4)cc3)cc2)n1,"inconclusive: 12.6 µM [inhibitor, partial curve]",
Cc1ccc(NCc2nc3ccccc3n2C)cc1,active: 15.8 µM,
COC(=O)c1[nH]c(C)c(/C(O)=C2\C(=O)C(=O)N(CCN(C)C)C2c2cc(OC)ccc2OC)c1C (stereo not given),inactive,
O=C1c2ccccc2NC(c2cnc3ccccc3n2)N1O (stereo not given),"inconclusive: 15.8 µM [inhibitor, partial curve]",
N#Cc1cc2ccccc2nc1SCc1ccccn1,"inconclusive: 39.8 µM [inhibitor, single point]",
Cc1ccc(NC(=O)CSCC(N)=O)cc1C,active: 6.31 µM,
NCC1OC(OC2C(N)CC(N)[C@@H](O)[C@@H]2OC2O[C@H](CO)[C@@H](O[C@@H]3OC(CN)C(O)C(O)C3N)C2O)C(N)C(O)C1O (stereo not given in full),inactive,
CC(=O)N1CCN(c2ccc(NCc3ccc(C(C)C)cc3)cc2)CC1,active: 12.6 µM,
COc1ccc2cc(C(c3nnnn3C(C)(C)C)N3CCc4ccccc4C3)c(=O)[nH]c2c1 (stereo not given),"inconclusive: 10 µM [inhibitor, partial curve]",
N.N.O=C(O)C1(C(=O)O)CCC1.[Pt],active: 0.631 µM,
COc1ccc(CCNc2nc(N3CCCCC3)nc(N3CCCCC3)n2)cc1OC,"inconclusive: 15.8 µM [inhibitor, single point]",
CCOC(=O)N1CCC(NC(=O)c2ccc3c(c2)N(CC)CCS3)CC1,"inconclusive: 20 µM [inhibitor, partial curve]",
O=C(NC1CCCC1)c1sc(=S)n2c1[nH]c(=O)c1ccccc12,"inconclusive: 15.8 µM [inhibitor, partial curve]",
COCCSc1ccccc1C(=O)Nc1ccncc1,"inconclusive: 31.6 µM [inhibitor, single point]",
O=C1C2C3CCCC3=C3CCCC3C2C(=O)N1c1ccc(Cl)cc1 (stereo not given),"inconclusive: 1.26 µM [inhibitor, partial curve]",
Cc1ccc2nc(-c3cccc(-c4nc5ccc(C)cc5o4)n3)oc2c1,inactive,
CS(=O)(=O)Nc1cccc(-c2cncnc2-n2ccnc2)c1,inactive,
COc1ccccc1-c1cc(C(=O)N2CCN(c3ccccc3OC)CC2)no1,inactive,
CC(=O)C1=C(O)C(=O)N(CCc2c[nH]c3ccccc23)C1c1ccco1 (stereo not given),"inconclusive: 12.6 µM [inhibitor, partial curve]",
Cc1noc(C)c1-c1nccc(N(C)Cc2ccco2)n1,"inconclusive: 10 µM [inhibitor, partial curve]",
c1ccc(-c2n[nH]nc2-c2ccccc2)cc1,"inconclusive: 15.8 µM [inhibitor, partial curve]",

SMILES,Potency,"activity change, negative = inhibition"
CCCCCCN(CCCCCC)C(=O)Cc1c(-c2ccc(Cl)cc2)[nH]c2ccc(Cl)cc12,inactive,
COc1cc2c(cc1OC)CN(C(=O)CSc1nc(N)c(C#N)cc1C#N)CC2,"inconclusive: 25.1 µM [inhibitor, partial curve]",
CCOc1cc2[nH]c(=O)n(CCCCC(=O)NC3CCCCC3)c(=O)c2cc1OCC,inactive,
COc1ccc(CNc2ncncc2-c2ccccc2C(F)(F)F)c(OC)c1,"inconclusive: 39.8 µM [inhibitor, single point]",
Cc1ccc(-c2nc3nc4ccccc4nc3n2Cc2ccco2)cc1,"inconclusive: 31.6 µM [inhibitor, single point]",
CN(CC(=O)O)S(=O)(=O)c1cccs1,inactive,
O=C(CSc1nnc(-c2cc3ccccc3cc2O)n1Cc1ccco1)c1ccc(F)cc1,"inconclusive: 10 µM [inhibitor, partial curve]",
O=C(CSc1nc2ccc(S(=O)(=O)N3CCOCC3)cc2[nH]1)N1CCOCC1,active: 7.94 µM,
C=CC1=C(C)C2=NC1=CC1=NC(=CC3=NC(=CC4=NC(=C2)C(C)=C4CCC(=O)O)C(CCC(=O)O)=C3C)C(C=C)=C1C.[Zn],active: 10 µM,
COc1cc(OC)cc(-n2nnnc2SCC(=O)N2CCCc3ccccc32)c1,"inconclusive: 20 µM [inhibitor, partial curve]",
CCOC(=O)N1CCN(C(=O)CN(C2CCCCC2)S(=O)(=O)c2ccc(F)cc2)CC1,"inconclusive: 3.98 µM [inhibitor, single point]",
CN[C@@H](CC(C)C)C(=O)N[C@@H]1C(=O)N[C@H](CC(N)=O)C(=O)N[C@H]2C(=O)N[C@H]3C(=O)N[C@H](C(=O)N[C@H](C(=O)O)c4cc(O)cc(O)c4-c4cc3ccc4O)[C@H](O)c3ccc(c(Cl)c3)Oc3cc2cc(c3O[C@@H]2O[C@@H](CO)[C@@H](O)[C@@H](O)[C@H]2O[C@H]2C[C@](C)(N)[C@H](O)[C@H](C)O2)Oc2ccc(cc2Cl)[C@@H]1O,"inconclusive: 39.8 µM [inhibitor, single point]",
COc1cc(/C=C/C(=O)CC(=O)/C=C/c2ccc(O)c(OC)c2)ccc1O,"inconclusive: 15.8 µM [inhibitor, partial curve] and inconclusive: 12.6 µM [inhibitor, partial curve]",
O=C(CSc1nc(NS(=O)(=O)c2ccccc2)cc(=O)[nH]1)Nc1ccc(F)cc1,"inconclusive: 31.6 µM [inhibitor, single point]",
COC(=O)c1nn(-c2ccc(-c3ccccc3)cc2)cc1O,"inconclusive: 20 µM [inhibitor, partial curve]",
CCOc1ccc(C2C(C#N)=C(N)SC(N)=C2C#N)c(OCC)c1,active: 10 µM,
CC(=O)c1c(Nc2ccc3c(c2)OCCO3)oc(C)cc1=O,"inconclusive: 10 µM [inhibitor, partial curve]",
O=C(O)[C@H]1CCCC[C@@H]1C(=O)Nc1nc2ccccc2[nH]1,,inactive: 5.58% [at 11.4 µM]
CCCCn1c(CCC(=O)O)ccc1-c1cccs1,"inconclusive: 15.8 µM [inhibitor, partial curve]",
CC(=O)c1cccc(NC(=O)CN2C(=O)COc3ccc(Cl)cc32)c1,"inconclusive: 20 µM [inhibitor, partial curve]",
CCN1CCN(c2nc3ccccc3nc2C(C#N)C(=O)OC2CCCCC2)CC1 (stereo not given),"inconclusive: 31.6 µM [inhibitor, single point]",
